From patent US20250127918A1, “SITE-SELECTIVE CONJUGATION OF A PHARMACEUTICAL AGENT TO AN ANTIBODY USING AN AFFINITY PEPTIDE” (priority 2023, published 2025)

Legend:
Dupilumab (hIgG4) = assay: cell-based or functional assay
Mouse IgG1 = assay: cell-based or functional assay

B1: PEL-21 (peptide)
peptide: FNMQQQRRFYEALHDPNLNCEQRNAKIKSIRDD
modifications: not checked
Binder B1 has a total conversion, second column (head printed as 'Light chain total conversion', read as heavy chain; Q-ToF LC-MS; 20 eq., room temperature) (Dupilumab (hIgG4)) of 96%, a total conversion, second column (head printed as 'Light chain total conversion', read as heavy chain; Q-ToF LC-MS; 20 eq., rt) (Dupilumab (hIgG4)) of 96% and a total conversion, second column (head printed as 'Light chain total conversion', read as heavy chain; Q-ToF LC-MS; 20 eq., room temperature) (Mouse IgG1) of 69%. For the same binder, the total conversion, second column (head printed as 'Light chain total conversion', read as heavy chain; Q-ToF LC-MS; 20 eq., rt) (Mouse IgG1) was 69%.
